Assay results as given in patent US20250019376A1, “CHROMANE AMIDINE MONOBACTAM ANTIBIOTICS” (priority 2021, published 2025).
At least one read-out could not be matched to a standard name with certainty.

Columns and labels:
Conditions in all cases: lowest concentration inhibiting 95% of growth (OD600); with BLi relebactam 4 μg/mL; 22 hours, 35±2° C.
[1] = test system: Klebsiella pneumoniae expressing KPC-1 (CL6569); test: Growth inhibitory concentration (OD600), K. pneumoniae CL6569; format: cell-based
Protocol: (§1) The concentrations of compounds required to inhibit the growth of various strains of bacteria were determined in an assay that assessed bacterial growth by measuring optical density at 600 nm (OD600). The bacterial strains tested included the clinical strains Escherichia co/i expressing NDM-1 (CLB30016), Klebsiella pneumoniae expressing KPC-1 (CL6569), Acinetobacter baumannii expressing TEM-1, AmpC, and Oxa-24/40 (CL6188) and Pseudomonas aeruginosa expressing AmpC (CL5701). All compounds were tested in the presence of a f3 lactamase inhibitor (BLi, Relebactam) in 384-well microplates.
(§2) The clinical strains were stored as frozen single use stocks, thawed and diluted into 1.1× cation-adjusted Mueller-Hinton 11 broth to achieve approximately 2×10^5 CFU/mL. Test compounds were dissolved in DMSO and diluted 1:50 in the assay, resulting in a final concentration range of 100 μM to 0.098 μM. On the day of the assay, 1 μL of test compound was added to the plate followed by 4 μL of 50 μg/mL BLi in MOPS buffer and 45 μL of diluted bacteria. Plates were centrifuged at 1000 rpm for 30 seconds, shaken at approximately 800 rpm for 1 minute, and incubated at 35±2° C. for 22 hours. The concentration of BLi used in the assay was 4 μg/mL. At the end of the incubation, absorbance at 600 nm was determined using a spectrophotometer. Inhibition was quantitated by identifying the lowest concentration of test compound that was required to inhibit […] of the growth of the bacteria.

[2] = test system: Escherichia co/i expressing NDM-1 (CLB30016); test: Growth inhibitory concentration (OD600), E. coli CLB30016; format: cell-based, Escherichia coli
Protocol: as §1, §2

[3] = test system: Acinetobacter baumannii expressing TEM-1, AmpC, and Oxa-24/40 (CL6188); format: cell-based
Protocol: as §1, §2

[4] = test system: Pseudomonas aeruginosa expressing AmpC (CL5701); test: Growth inhibitory concentration (OD600), P. aeruginosa CL5701; format: cell-based
Protocol: as §1, §2

CC1(C)[C@H](NC(=O)/C(=N\O[C@](C)(C(=O)O)[C@H]2CCc3cc(C(=N)NC4CCC5(CC4)CNC5)ccc3O2)c2csc(N)n2)C(=O)N1OS(=O)(=O)O [Compound 13, (S)-2-((R)-6-(N-(2-azaspiro[3.5]nonan-7-yl)carbamimidoyl)chroman-2-yl)-2-((((Z)-1-(2-aminothiazol-4-yl)-2-(((S)-2,2-dimethyl-4-oxo-1-(sulfooxy)azetidin-3-yl)-amino)-2-oxoethylidene)amino)oxy)propanoic acid]
KP_CL6569 MITC95 [1]: 0.1953 µM
EC_CLB30016 MITC95 [2]: 3.125 µM
AB_CL6188 MITC95 [3]: 3.125 µM
PA_CL5701 MITC95 [4]: 1.563 µM

CC1(C)[C@H](NC(=O)/C(=N\O[C@](C)(C(=O)O)[C@H]2CCc3cc(C(=N)NC4CNC4)ccc3O2)c2csc(N)n2)C(=O)N1OS(=O)(=O)O [Compound 36, (S)-2-((((Z)-1-(2-aminothiazol-4-yl)-2-(((S)-2,2-dimethyl-4-oxo-1-(sulfooxy)azetidin-3-yl)amino)-2-oxoethylidene)amino)oxy)-2-((R)-6-(N-(azetidin-3-yl)carbamimidoyl)chroman-2-yl)propanoic acid]
KP_CL6569 MITC95 [1]: 0.3906 µM
EC_CLB30016 MITC95 [2]: 3.125 µM
AB_CL6188 MITC95 [3]: 6.25 µM
PA_CL5701 MITC95 [4]: 1.563 µM

CC1(C)[C@H](NC(=O)/C(=N\O[C@](C)(C(=O)O)[C@H]2CCc3cc(C(=N)Nc4ccc(CN)cc4)ccc3O2)c2csc(N)n2)C(=O)N1OS(=O)(=O)O [Compound 38, (S)-2-((R)-6-(N-(4-(aminomethyl)phenyl)carbamimidoyl)chroman-2-yl)-2-((((Z)-1-(2-aminothiazol-4-yl)-2-(((S)-2,2-dimethyl-4-oxo-1-(sulfooxy)azetidin-3-yl)amino)-2-oxoethylidene)amino)oxy)propanoic acid]
KP_CL6569 MITC95 [1]: 0.3906 µM
EC_CLB30016 MITC95 [2]: 12.5 µM
AB_CL6188 MITC95 [3]: 6.25 µM
PA_CL5701 MITC95 [4]: 1.563 µM

CC1(C)[C@@H](CN)C[C@H]1NC(=N)c1ccc2c(c1)CC[C@H]([C@](C)(O/N=C(\C(=O)N[C@@H]1C(=O)N(OS(=O)(=O)O)C1(C)C)c1csc(N)n1)C(=O)O)O2 [Compound 120, (S)-2-((R)-6-(N-((1R,3S)-3-(aminomethyl)-2,2-dimethylcyclobutyl)carbamimidoyl)chroman-2-yl)-2-((((Z)-1-(2-aminothiazol-4-yl)-2-(((S)-2,2-dimethyl-4-oxo-1-(sulfooxy)azetidin-3-yl)amino)-2-oxoethylidene)amino)oxy)propanoic acid]
KP_CL6569 MITC95 [1]: 0.7813 µM
EC_CLB30016 MITC95 [2]: 12.5 µM
AB_CL6188 MITC95 [3]: 6.25 µM
PA_CL5701 MITC95 [4]: 3.125 µM

CC1(C)[C@H](NC(=O)/C(=N\O[C@](C)(C(=O)O)[C@H]2CCc3cc(C(=N)N[C@H]4CCCNCC4)ccc3O2)c2csc(N)n2)C(=O)N1OS(=O)(=O)O [Compound 5, (S)-2-((((Z)-1-(2-aminothiazol-4-yl)-2-(((S)-2,2-dimethyl-4-oxo-1-(sulfooxy)-azetidin-3-yl)amino)-2-oxoethylidene)amino)oxy)-2-((R)-6-(N—((S)-azepan-4-yl)carbamimidoyl)chroman-2-yl)propanoic acid]
KP_CL6569 MITC95 [1]: 0.3906 µM
EC_CLB30016 MITC95 [2]: 9.375 µM
AB_CL6188 MITC95 [3]: 3.125 µM
PA_CL5701 MITC95 [4]: 1.563 µM

CC1(C)[C@H](NC(=O)/C(=N\O[C@](C)(C(=O)O)[C@H]2CCc3cc(C(=N)N[C@@H]4CCCCNC4)ccc3O2)c2csc(N)n2)C(=O)N1OS(=O)(=O)O [Compound 10, (S)-2-((((Z)-1-(2-aminothiazol-4-yl)-2-(((S)-2,2-dimethyl-4-oxo-1-(sulfooxy)-azetidin-3-yl)amino)-2-oxoethylidene)amino)oxy)-2-((R)-6-(N—((R)-azepan-3-yl)carbamimidoyl)-chroman-2-yl)propanoic acid]
KP_CL6569 MITC95 [1]: 0.3906 µM
EC_CLB30016 MITC95 [2]: 6.25 µM
AB_CL6188 MITC95 [3]: 6.25 µM
PA_CL5701 MITC95 [4]: 1.563 µM

CC1(C)[C@H](NC(=O)/C(=N\O[C@](C)(C(=O)O)[C@H]2CCc3cc(C(=N)N[C@@H]4CCN[C@@H](CO)C4)ccc3O2)c2csc(N)n2)C(=O)N1OS(=O)(=O)O (single isomer, unassigned) [Compound 54]
KP_CL6569 MITC95 [1]: 0.7813 µM
EC_CLB30016 MITC95 [2]: 12.5 µM
AB_CL6188 MITC95 [3]: 6.25 µM
PA_CL5701 MITC95 [4]: 3.125 µM

CC1(C)[C@H](NC(=O)/C(=N\O[C@](C)(C(=O)O)[C@H]2CCc3cc(C(=N)N[C@H]4CC[C@](C)(N)CC4)ccc3O2)c2csc(N)n2)C(=O)N1OS(=O)(=O)O [Compound 57, (S)-2-((R)-6-(N-((1r,4R)-4-amino-4-methylcyclohexyl)carbamimidoyl)chroman-2-yl)-2-((((Z)-1-(2-aminothiazol-4-yl)-2-(((S)-2,2-dimethyl-4-oxo-1-(sulfooxy)azetidin-3-yl)amino)-2-oxoethylidene)amino)oxy)propanoic acid]
KP_CL6569 MITC95 [1]: 0.3906 µM
EC_CLB30016 MITC95 [2]: 3.125 µM
AB_CL6188 MITC95 [3]: 3.125 µM
PA_CL5701 MITC95 [4]: 1.563 µM

CC1(C)[C@H](NC(=O)/C(=N\O[C@](C)(C(=O)O)[C@H]2CCc3cc(C(=N)NC4CCNCC4)ccc3O2)c2csc(N)n2)C(=O)N1OS(=O)(=O)O [Compound 28, (S)-2-((((Z)-1-(2-aminothiazol-4-yl)-2-(((S)-2,2-dimethyl-4-oxo-1-(sulfooxy)azetidin-3-yl)amino)-2-oxoethylidene)amino)oxy)-2-((R)-6-(N-(piperidin-4-yl)carbamimidoyl)chroman-2-yl)propanoic acid]
KP_CL6569 MITC95 [1]: 0.4557 µM
EC_CLB30016 MITC95 [2]: 5.208 µM
AB_CL6188 MITC95 [3]: 3.646 µM
PA_CL5701 MITC95 [4]: 1.563 µM

COC[C@]1(N)CC[C@H](NC(=N)c2ccc3c(c2)CC[C@H]([C@](C)(O/N=C(\C(=O)N[C@@H]2C(=O)N(OS(=O)(=O)O)C2(C)C)c2csc(N)n2)C(=O)O)O3)CC1 [Compound 129, (S)-2-((R)-6-(N-((1r,4R)-4-amino-4-(methoxymethyl)cyclohexyl)carbamimidoyl)chroman-2-yl)-2-((((Z)-1-(2-aminothiazol-4-yl)-2-(((S)-2,2-dimethyl-4-oxo-1-(sulfooxy)azetidin-3-yl)amino)-2-oxoethylidene)amino)oxy)propanoic acid]
KP_CL6569 MITC95 [1]: 0.7813 µM
EC_CLB30016 MITC95 [2]: 6.25 µM
AB_CL6188 MITC95 [3]: 6.25 µM
PA_CL5701 MITC95 [4]: 3.125 µM

CC1(CN)CC(NC(=N)c2ccc3c(c2)CC[C@H]([C@](C)(O/N=C(\C(=O)N[C@@H]2C(=O)N(OS(=O)(=O)O)C2(C)C)c2csc(N)n2)C(=O)O)O3)C1 (stereo partly drawn) [Compound 117, (S)-2-((R)-6-(N-((1s,3S)-3-(aminomethyl)-3-methylcyclobutyl)carbamimidoyl)chroman-2-yl)-2-((((Z)-1-(2-aminothiazol-4-yl)-2-(((S)-2,2-dimethyl-4-oxo-1-(sulfooxy)azetidin-3-yl)amino)-2-oxoethylidene)amino)oxy)propanoic acid]
KP_CL6569 MITC95 [1]: 0.3906 µM
EC_CLB30016 MITC95 [2]: 6.25 µM
AB_CL6188 MITC95 [3]: 6.25 µM
PA_CL5701 MITC95 [4]: 3.125 µM

CC1(C)[C@H](NC(=O)/C(=N\O[C@](C)(C(=O)O)[C@H]2CCc3cc(C(=N)N[C@H]4C[C@@]5(CCN5)C4)ccc3O2)c2csc(N)n2)C(=O)N1OS(=O)(=O)O [Compound 17, (S)-2-((R)-6-(N-((4R,6s)-1-azaspiro[3.3]heptan-6-yl)carbamimidoyl)chroman-2-yl)-2-((((Z)-1-(2-aminothiazol-4-yl)-2-(((S)-2,2-dimethyl-4-oxo-1-(sulfooxy)azetidin-3-yl)amino)-2-oxo-ethylidene)amino)oxy)propanoic acid]
KP_CL6569 MITC95 [1]: 0.3906 µM
EC_CLB30016 MITC95 [2]: 3.125 µM
AB_CL6188 MITC95 [3]: 3.125 µM
PA_CL5701 MITC95 [4]: 1.563 µM

CC1(C)[C@H](NC(=O)/C(=N\O[C@](C)(C(=O)O)[C@H]2CCc3cc(C(=N)NC4CCCC(N)CC4)ccc3O2)c2csc(N)n2)C(=O)N1OS(=O)(=O)O (single isomer, unassigned) [Compound 107]
KP_CL6569 MITC95 [1]: 0.3906 µM
EC_CLB30016 MITC95 [2]: 3.125 µM
AB_CL6188 MITC95 [3]: 1.563 µM
PA_CL5701 MITC95 [4]: 1.563 µM

CC1(C)[C@H](NC(=O)/C(=N\O[C@](C)(C(=O)O)[C@H]2CCc3cc(C(=N)N[C@H]4C[C@@](N)(CO)C4)ccc3O2)c2csc(N)n2)C(=O)N1OS(=O)(=O)O [Compound 88, (S)-2-((R)-6-(N-((1r,3R)-3-amino-3-(hydroxymethyl)cyclobutyl)carbamimidoyl)chroman-2-yl)-2-((((Z)-1-(2-aminothiazol-4-yl)-2-(((S)-2,2-dimethyl-4-oxo-1-(sulfooxy)azetidin-3-yl)amino)-2-oxoethylidene)amino)oxy)propanoic acid]
KP_CL6569 MITC95 [1]: 0.3906 µM
EC_CLB30016 MITC95 [2]: 6.25 µM
AB_CL6188 MITC95 [3]: 6.25 µM
PA_CL5701 MITC95 [4]: 1.563 µM
